Tests used:
Assay in all cases: SPR, Protein L capture
[1] = molecular target: T1, PRYSPRY domain of human TRIM21 with N-terminal 6xHis tag (human)
T1 construct: Expressed in E. coli; also called hTRIM21; human TRIM21.PRYSPRY
T1 chain: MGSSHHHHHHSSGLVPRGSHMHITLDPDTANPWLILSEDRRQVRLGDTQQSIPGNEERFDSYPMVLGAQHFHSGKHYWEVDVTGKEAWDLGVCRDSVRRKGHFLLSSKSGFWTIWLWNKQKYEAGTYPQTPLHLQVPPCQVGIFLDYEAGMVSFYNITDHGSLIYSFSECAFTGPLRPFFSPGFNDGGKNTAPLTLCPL

[2] = molecular target: T2, PRYSPRY domain of mouse TRIM21 with N-terminal 6xHis tag (mouse)
T2 construct: Expressed in E. coli; also called mTRIM21; mouse TRIM21.PRYSPRY
T2 chain: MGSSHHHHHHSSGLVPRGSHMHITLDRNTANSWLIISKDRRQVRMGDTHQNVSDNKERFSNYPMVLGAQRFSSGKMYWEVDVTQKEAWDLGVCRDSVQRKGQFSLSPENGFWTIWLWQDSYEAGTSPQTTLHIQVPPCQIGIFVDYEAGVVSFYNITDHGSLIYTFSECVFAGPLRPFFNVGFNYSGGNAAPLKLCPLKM

human FcRn = molecular target: T3, human FcRn (human, UniProt P55899 fragment; P61769 fragment, limits assumed)
Chain of human FcRn (P55899 24-290 limits assumed, form in doubt, chain 1 of 2): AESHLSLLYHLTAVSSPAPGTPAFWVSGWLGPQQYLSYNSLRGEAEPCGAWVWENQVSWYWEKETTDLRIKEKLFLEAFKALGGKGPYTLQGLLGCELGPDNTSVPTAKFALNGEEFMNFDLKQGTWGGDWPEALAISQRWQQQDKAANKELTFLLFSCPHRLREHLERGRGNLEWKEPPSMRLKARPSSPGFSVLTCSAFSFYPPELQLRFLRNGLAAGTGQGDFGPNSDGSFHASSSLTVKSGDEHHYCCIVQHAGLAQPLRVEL
Chain of human FcRn (P61769 21-119 limits assumed, form in doubt, chain 2 of 2, further chain): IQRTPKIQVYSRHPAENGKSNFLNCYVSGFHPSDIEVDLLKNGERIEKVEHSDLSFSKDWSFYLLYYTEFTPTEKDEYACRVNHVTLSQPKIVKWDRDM
T3 construct: also called hFcRn

B1: MRAH-G1d/MRAL-KT0 L309A (antibody, human IgG1, kappa)
heavy: QVQLQESGPGLVRPSQTLSLTCTVSGYSITSDHAWSWVRQPPGRGLEWIGYISYSGITTYNPSLKSRVTMLRDTSKNQFSLRLSSVTAADTAVYYCARSLARTTAMDYWGQGSLVTVSS[human IgG1 constant region with L309A (EU numbers) omitted here]
light: DIQMTQSPSSLSASVGDRVTITCRASQDISSYLNWYQQKPGKAPKLLIYYTSRLHSGVPSRFSGSGSGTDFTFTISSLQPEDIATYYCQQGNTLPYTFGQGTKVEIKRTVAAPSVFIFPPSDEQLKSGTASVVCLLNNFYPREAKVQWKVDNALQSGNSQESVTEQDSKDSTYSLSSTLTLSKADYEKHKVYACEVTHQGLSSPVTKSFNRGEC
notes: copies: 2 + 2
hTRIM21 binding level ratio (variant/control antibody) [1]: 0.774 | mTRIM21 binding level ratio (variant/control antibody) [2]: 2 | hFcRn binding level ratio (variant/control antibody) (human FcRn): 0.71

B2: MRAH-G1d/MRAL-KT0 D312F (antibody, human IgG1, kappa)
heavy: QVQLQESGPGLVRPSQTLSLTCTVSGYSITSDHAWSWVRQPPGRGLEWIGYISYSGITTYNPSLKSRVTMLRDTSKNQFSLRLSSVTAADTAVYYCARSLARTTAMDYWGQGSLVTVSS[human IgG1 constant region with D312F (EU numbers) omitted here]
light: B1 light
notes: copies: 2 + 2
hTRIM21 binding level ratio (variant/control antibody) [1]: 1.24 | mTRIM21 binding level ratio (variant/control antibody) [2]: 2.86 | hFcRn binding level ratio (variant/control antibody) (human FcRn): 0.12

B3: MRAH-G1d/MRAL-KT0 D312R (antibody, human IgG1, kappa)
heavy: QVQLQESGPGLVRPSQTLSLTCTVSGYSITSDHAWSWVRQPPGRGLEWIGYISYSGITTYNPSLKSRVTMLRDTSKNQFSLRLSSVTAADTAVYYCARSLARTTAMDYWGQGSLVTVSS[human IgG1 constant region with D312R (EU numbers) omitted here]
light: B1 light
notes: copies: 2 + 2
hTRIM21 binding level ratio (variant/control antibody) [1]: 1.17 | mTRIM21 binding level ratio (variant/control antibody) [2]: 2.74 | hFcRn binding level ratio (variant/control antibody) (human FcRn): 0.05

B4: MRAH-G1d/MRAL-KT0 D312L (antibody, human IgG1, kappa)
heavy: QVQLQESGPGLVRPSQTLSLTCTVSGYSITSDHAWSWVRQPPGRGLEWIGYISYSGITTYNPSLKSRVTMLRDTSKNQFSLRLSSVTAADTAVYYCARSLARTTAMDYWGQGSLVTVSS[human IgG1 constant region with D312L (EU numbers) omitted here]
light: B1 light
notes: copies: 2 + 2
hTRIM21 binding level ratio (variant/control antibody) [1]: 0.769 | mTRIM21 binding level ratio (variant/control antibody) [2]: 1.99 | hFcRn binding level ratio (variant/control antibody) (human FcRn): 0.03

B5: MRAH-G1d/MRAL-KT0 D312I (antibody, human IgG1, kappa)
heavy: QVQLQESGPGLVRPSQTLSLTCTVSGYSITSDHAWSWVRQPPGRGLEWIGYISYSGITTYNPSLKSRVTMLRDTSKNQFSLRLSSVTAADTAVYYCARSLARTTAMDYWGQGSLVTVSS[human IgG1 constant region with D312I (EU numbers) omitted here]
light: B1 light
notes: copies: 2 + 2
hTRIM21 binding level ratio (variant/control antibody) [1]: 1.05 | mTRIM21 binding level ratio (variant/control antibody) [2]: 2.88 | hFcRn binding level ratio (variant/control antibody) (human FcRn): 0.46

B6: MRAH-G1d/MRAL-KT0 D312G (antibody, human IgG1, kappa)
heavy: QVQLQESGPGLVRPSQTLSLTCTVSGYSITSDHAWSWVRQPPGRGLEWIGYISYSGITTYNPSLKSRVTMLRDTSKNQFSLRLSSVTAADTAVYYCARSLARTTAMDYWGQGSLVTVSS[human IgG1 constant region with D312G (EU numbers) omitted here]
light: B1 light
notes: copies: 2 + 2
hTRIM21 binding level ratio (variant/control antibody) [1]: 1.14 | mTRIM21 binding level ratio (variant/control antibody) [2]: 2.73 | hFcRn binding level ratio (variant/control antibody) (human FcRn): 0.91

B7: MRAH-G1d/MRAL-KT0 L432A (antibody, human IgG1, kappa)
heavy: QVQLQESGPGLVRPSQTLSLTCTVSGYSITSDHAWSWVRQPPGRGLEWIGYISYSGITTYNPSLKSRVTMLRDTSKNQFSLRLSSVTAADTAVYYCARSLARTTAMDYWGQGSLVTVSS[human IgG1 constant region with L432A (EU numbers) omitted here]
light: B1 light
hTRIM21 binding level ratio (variant/control antibody) [1]: 0.575 | mTRIM21 binding level ratio (variant/control antibody) [2]: 2.38

B8: MRAH-G1d/MRAL-KT0 L432R (antibody, human IgG1, kappa)
heavy: QVQLQESGPGLVRPSQTLSLTCTVSGYSITSDHAWSWVRQPPGRGLEWIGYISYSGITTYNPSLKSRVTMLRDTSKNQFSLRLSSVTAADTAVYYCARSLARTTAMDYWGQGSLVTVSS[human IgG1 constant region with L432R (EU numbers) omitted here]
light: B1 light
notes: copies: 2 + 2
mTRIM21 binding level ratio (variant/control antibody) [2]: 1.13 | hFcRn binding level ratio (variant/control antibody) (human FcRn): 0

B9: MRAH-G1d/MRAL-KT0 L314E (antibody, human IgG1, kappa)
heavy: QVQLQESGPGLVRPSQTLSLTCTVSGYSITSDHAWSWVRQPPGRGLEWIGYISYSGITTYNPSLKSRVTMLRDTSKNQFSLRLSSVTAADTAVYYCARSLARTTAMDYWGQGSLVTVSS[human IgG1 constant region with L314E (EU numbers) omitted here]
light: B1 light
notes: copies: 2 + 2
binding result [2]: no binding (tested: 100 nM) | hFcRn binding level ratio (variant/control antibody) (human FcRn): 0

B10: MRAH-G1d/MRAL-KT0 D312M (antibody, human IgG1, kappa)
heavy: QVQLQESGPGLVRPSQTLSLTCTVSGYSITSDHAWSWVRQPPGRGLEWIGYISYSGITTYNPSLKSRVTMLRDTSKNQFSLRLSSVTAADTAVYYCARSLARTTAMDYWGQGSLVTVSS[human IgG1 constant region with D312M (EU numbers) omitted here]
light: B1 light
notes: copies: 2 + 2
hTRIM21 binding level ratio (variant/control antibody) [1]: 1.09 | mTRIM21 binding level ratio (variant/control antibody) [2]: 2.76 | hFcRn binding level ratio (variant/control antibody) (human FcRn): 0.78

B11: MRAH-G1d/MRAL-KT0 D312K (antibody, human IgG1, kappa)
heavy: QVQLQESGPGLVRPSQTLSLTCTVSGYSITSDHAWSWVRQPPGRGLEWIGYISYSGITTYNPSLKSRVTMLRDTSKNQFSLRLSSVTAADTAVYYCARSLARTTAMDYWGQGSLVTVSS[human IgG1 constant region with D312K (EU numbers) omitted here]
light: B1 light
notes: copies: 2 + 2
hTRIM21 binding level ratio (variant/control antibody) [1]: 1.19 | mTRIM21 binding level ratio (variant/control antibody) [2]: 2.96 | hFcRn binding level ratio (variant/control antibody) (human FcRn): 0.9

B12: MRAH-G1d/MRAL-KT0 D312Q (antibody, human IgG1, kappa)
heavy: QVQLQESGPGLVRPSQTLSLTCTVSGYSITSDHAWSWVRQPPGRGLEWIGYISYSGITTYNPSLKSRVTMLRDTSKNQFSLRLSSVTAADTAVYYCARSLARTTAMDYWGQGSLVTVSS[human IgG1 constant region with D312Q (EU numbers) omitted here]
light: B1 light
notes: copies: 2 + 2
hTRIM21 binding level ratio (variant/control antibody) [1]: 1.11 | mTRIM21 binding level ratio (variant/control antibody) [2]: 2.85 | hFcRn binding level ratio (variant/control antibody) (human FcRn): 0.16

B13: MRAH-G1d/MRAL-KT0 E345K (antibody, human IgG1, kappa)
heavy: QVQLQESGPGLVRPSQTLSLTCTVSGYSITSDHAWSWVRQPPGRGLEWIGYISYSGITTYNPSLKSRVTMLRDTSKNQFSLRLSSVTAADTAVYYCARSLARTTAMDYWGQGSLVTVSS[human IgG1 constant region with E345K (EU numbers) omitted here]
light: B1 light
mTRIM21 binding level ratio (variant/control antibody) [2]: 2.5 | hFcRn binding level ratio (variant/control antibody) (human FcRn): 0.83

B14: MRAH-G1d/MRAL-KT0 D312E (antibody, human IgG1, kappa)
heavy: QVQLQESGPGLVRPSQTLSLTCTVSGYSITSDHAWSWVRQPPGRGLEWIGYISYSGITTYNPSLKSRVTMLRDTSKNQFSLRLSSVTAADTAVYYCARSLARTTAMDYWGQGSLVTVSS[human IgG1 constant region with D312E (EU numbers) omitted here]
light: B1 light
notes: copies: 2 + 2
hTRIM21 binding level ratio (variant/control antibody) [1]: 0.933 | mTRIM21 binding level ratio (variant/control antibody) [2]: 2.35 | hFcRn binding level ratio (variant/control antibody) (human FcRn): 0.5

B15: MRAH-G1d/MRAL-KT0 D312A (antibody, human IgG1, kappa)
heavy: QVQLQESGPGLVRPSQTLSLTCTVSGYSITSDHAWSWVRQPPGRGLEWIGYISYSGITTYNPSLKSRVTMLRDTSKNQFSLRLSSVTAADTAVYYCARSLARTTAMDYWGQGSLVTVSS[human IgG1 constant region with D312A (EU numbers) omitted here]
light: B1 light
notes: copies: 2 + 2
hTRIM21 binding level ratio (variant/control antibody) [1]: 1.14 | mTRIM21 binding level ratio (variant/control antibody) [2]: 2.57 | hFcRn binding level ratio (variant/control antibody) (human FcRn): 1.14

B16: MRAH-G1d/MRAL-KT0 D312P (antibody, human IgG1, kappa)
heavy: QVQLQESGPGLVRPSQTLSLTCTVSGYSITSDHAWSWVRQPPGRGLEWIGYISYSGITTYNPSLKSRVTMLRDTSKNQFSLRLSSVTAADTAVYYCARSLARTTAMDYWGQGSLVTVSS[human IgG1 constant region with D312P (EU numbers) omitted here]
light: B1 light
notes: copies: 2 + 2
hTRIM21 binding level ratio (variant/control antibody) [1]: 1.11 | mTRIM21 binding level ratio (variant/control antibody) [2]: 2.96 | hFcRn binding level ratio (variant/control antibody) (human FcRn): 0.2

B17: MRAH-G1d/MRAL-KT0 D312N (antibody, human IgG1, kappa)
heavy: QVQLQESGPGLVRPSQTLSLTCTVSGYSITSDHAWSWVRQPPGRGLEWIGYISYSGITTYNPSLKSRVTMLRDTSKNQFSLRLSSVTAADTAVYYCARSLARTTAMDYWGQGSLVTVSS[human IgG1 constant region with D312N (EU numbers) omitted here]
light: B1 light
notes: copies: 2 + 2
hTRIM21 binding level ratio (variant/control antibody) [1]: 1.08 | mTRIM21 binding level ratio (variant/control antibody) [2]: 2.58 | hFcRn binding level ratio (variant/control antibody) (human FcRn): 0.24

B18: MRAH-G1d/MRAL-KT0 H433S (antibody, human IgG1, kappa)
heavy: QVQLQESGPGLVRPSQTLSLTCTVSGYSITSDHAWSWVRQPPGRGLEWIGYISYSGITTYNPSLKSRVTMLRDTSKNQFSLRLSSVTAADTAVYYCARSLARTTAMDYWGQGSLVTVSS[human IgG1 constant region with H433S (EU numbers) omitted here]
light: B1 light
notes: copies: 2 + 2
hTRIM21 binding level ratio (variant/control antibody) [1]: -0.028 | mTRIM21 binding level ratio (variant/control antibody) [2]: -0.203

B19: MRAH-G1d/MRAL-KT0 M428R (antibody, human IgG1, kappa)
heavy: QVQLQESGPGLVRPSQTLSLTCTVSGYSITSDHAWSWVRQPPGRGLEWIGYISYSGITTYNPSLKSRVTMLRDTSKNQFSLRLSSVTAADTAVYYCARSLARTTAMDYWGQGSLVTVSS[human IgG1 constant region with M428R (EU numbers) omitted here]
light: B1 light
notes: copies: 2 + 2
mTRIM21 binding level ratio (variant/control antibody) [2]: 0.078 | hFcRn binding level ratio (variant/control antibody) (human FcRn): 0.05

B20: MRAH-G1d/MRAL-KT0 D312H (antibody, human IgG1, kappa)
heavy: QVQLQESGPGLVRPSQTLSLTCTVSGYSITSDHAWSWVRQPPGRGLEWIGYISYSGITTYNPSLKSRVTMLRDTSKNQFSLRLSSVTAADTAVYYCARSLARTTAMDYWGQGSLVTVSS[human IgG1 constant region with D312H (EU numbers) omitted here]
light: B1 light
notes: copies: 2 + 2
hTRIM21 binding level ratio (variant/control antibody) [1]: 1.29 | mTRIM21 binding level ratio (variant/control antibody) [2]: 2.86 | hFcRn binding level ratio (variant/control antibody) (human FcRn): 0.85
